In the GPR68 mutational scans of Howard et al. (2025):
Scores whose standard error is large were omitted. The source holds two more conditions with little spread; they are left out. Names with del lack the residues named; names with ins carry added residues between the positions named. For some of these results: The concentration of ogerin is not given here.

B1: GPR68, Q15743 (parent)
chain: MGNITADNSSMSCTIDHTIHQTLAPVVYVTVLVVGFPANCLSLYFGYLQIKARNELGVYLCNLTVADLFYICSLPFWLQYVLQHDNWSHGDLSCQVCGILLYENIYISVGFLCCISVDRYLAVAHPFRFHQFRTLKAAVGVSVVIWAKELLTSIYFLMHEEVIEDENQHRVCFEHYPIQAWQRAINYYRFLVGFLFPICLLLASYQGILRAVRRSHGTQKSRKDQIQRLVLSTVVIFLACFLPYHVLLLVRSVWEASCDFAKGVFNAYHFSLLLTSFNCVADPVLYCFVSETTHRDLARLRGACLAFLTCSRTGRAREAYPLGAPEASGKSGAQGEEPELLTKLHPAFQTPNSPGSGGFPTGRLA

Experiments:
[1] = variants of: B1; experiment: cAMP reporter score (Enrich2 score, wild type = 0); higher = more signal; HEK293T, FACS bins
[2] = variants of: B1; experiment: surface expression score (Enrich2 score, wild type = 0); higher = more signal; HEK293T, FACS bins

Row | Variant | cAMP reporter score ([1]; pH 5.5) | cAMP reporter score ([1]; pH 6) | cAMP reporter score ([1]; pH 6, modulator: ogerin) | cAMP reporter score ([1]; pH 6.5, modulator: ogerin) | surface expression score [2]
1 | MGNITADNSSMSCTIDHTIHQTLAPVVYVTVLVVGFPANCLSHYFGYLQIKARNELGVYLCNLTVADLFYICSLPFWLQYVLQHDNWSHGDLSCQVCGILLYENIYISVGFLCCISVDRYLAVAHPFRFHQFRTLKAAVGVSVVIWAKELLTSIYFLMHEEVIEDENQHRVCFEHYPIQAWQRAINYYRFLVGFLFPICLLLASYQGILRAVRRSHGTQKSRKDQIQRLVLSTVVIFLACFLPYHVLLLVRSVWEASCDFAKGVFNAYHFSLLLTSFNCVADPVLYCFVSETTHRDLARLRGACLAFLTCSRTGRAREAYPLGAPEASGKSGAQGEEPELLTKLHPAFQTPNSPGSGGFPTGRLA [L43H] | -1.86 | -0.739 | -1.58 | -0.573 | -2.1
2 | MGNITADNSSMSCTIDHTIHQTLAPVVYVTVLVVGFPANCLSFYFGYLQIKARNELGVYLCNLTVADLFYICSLPFWLQYVLQHDNWSHGDLSCQVCGILLYENIYISVGFLCCISVDRYLAVAHPFRFHQFRTLKAAVGVSVVIWAKELLTSIYFLMHEEVIEDENQHRVCFEHYPIQAWQRAINYYRFLVGFLFPICLLLASYQGILRAVRRSHGTQKSRKDQIQRLVLSTVVIFLACFLPYHVLLLVRSVWEASCDFAKGVFNAYHFSLLLTSFNCVADPVLYCFVSETTHRDLARLRGACLAFLTCSRTGRAREAYPLGAPEASGKSGAQGEEPELLTKLHPAFQTPNSPGSGGFPTGRLA [L43F] | -0.512 | 1.09 | -0.498 | 0.62 | -0.944
